Here are results for 47 compounds from the supplement of paper PMC8183993.

Where “and” joins values, the source holds several entries; their conditions need not be identical. Identical values can stand only once. Counter-ions that a name gives are not always drawn. ± gives the standard deviation of the averaged measurements. Whole data set: some 3,100 compounds, median “mean cytoplasmic OPP incorporation (global translation) relative to DMSO” near 100, cut for the lowest 2% near 56. The list shows a part of the results.

For this experiment, the system named is U2OS. Briefly: mean cytoplasmic OPP incorporation (global translation) relative to DMSO (% of DMSO); higher = more protein synthesis. The note with it: 10 µM; 24 h. How it is done:
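Primary image-based screen in U2OS cells: compounds at 10 uM for 24 h, then a 1 h o-propargyl-puromycin (OPP) pulse, click labelling, and high-throughput microscopy. Mean cytoplasmic OPP intensity and nuclei count were normalised to DMSO wells within each plate (DMSO = 100) and averaged over triplicate plates.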
On to `CCCCC(=O)O[C@H]1CC[C@H]2[C@@H]3CCc4cc(O)ccc4[C@H]3CC[C@]12C` [Estradiol valerate], for which the “mean cytoplasmic OPP incorporation” value came to 101.

For the compound `CCCCC(=O)O[C@H]1CC[C@H]2[C@@H]3CCc4cc(O)ccc4[C@H]3CC[C@]12C` [Estradiol Valerate], the “mean cytoplasmic OPP incorporation” value was determined as 95.6.

For the compound `O=[N+]([O-])c1ccccc1S(=O)(=O)NCC1CCC(CNCC2CCc3ccccc3C2)CC1` (configuration not stated) [NTNCB hydrochloride], the “mean cytoplasmic OPP incorporation” value turned out to be 114.

With `N#Cc1c(O)c2c(-c3ccc(-c4ccccc4O)cc3)csc2[nH]c1=O`, the “mean cytoplasmic OPP incorporation” value is 97.1 and 94.

Regarding `O=C(O)c1cc(O)c2c(c1)C(=O)c1cccc(O)c1C2=O` [Rhein (Monorhein)], the “mean cytoplasmic OPP incorporation” value turned out to be 109.

As to `Cc1ccc(Nc2c(F)cccc2Cl)c(CC(=O)O)c1` [Lumiracoxib (COX-189)], the “mean cytoplasmic OPP incorporation” value amounted to 103.

With `O=c1cc(-c2cccc3c2Sc2ccccc2S3)oc(N2CCOCC2)c1`, the “mean cytoplasmic OPP incorporation” value is 102 and 108.

For `Oc1ccc([C@H]2COc3cc(O)ccc3C2)cc1` [Equol], the “mean cytoplasmic OPP incorporation” value worked out at 99.8.

As to `Fc1ccc(C(c2ccc(F)cc2)N2CCN(C/C=C/c3ccccc3)CC2)cc1` [Flunarizine dihydrochloride], the “mean cytoplasmic OPP incorporation” value turned out to be 107 ± 4.4.

Regarding `Nc1nc(Cl)nc2c1ncn2[C@H]1C[C@H](O)[C@@H](CO)O1` [Cladribine], the “mean cytoplasmic OPP incorporation” value was 79.8.

As for `CN[C@@H]1[C@H](O[C@H]2[C@H](O[C@H]3[C@H](O)[C@@H](O)[C@H](N=C(N)N)[C@@H](O)[C@@H]3N=C(N)N)O[C@@H](C)[C@]2(O)C=O)O[C@@H](CO)[C@H](O)[C@H]1O` [Streptomycin sulfate], the “mean cytoplasmic OPP incorporation” value was 98.1 ± 3.8.

`N=C(N)NC(=N)Nc1ccccc1` [1-Phenylbiguanide hydrochloride]: the “mean cytoplasmic OPP incorporation” value was determined as 97.1.

For `NCCNC(=O)c1ccc(Cl)cn1` [Lazabemide hydrochloride], the “mean cytoplasmic OPP incorporation” value stood at 104.

For the compound `O=C([C@@H](Cc1cccc(C(F)(F)F)c1)NS(=O)(=O)c1cc(F)c2c(c1)CCNC2)N1CCCC1`, the “mean cytoplasmic OPP incorporation” value turned out to be 112.

In the case of `COc1cccc2c1C(=O)c1c(O)c3c(c(O)c1C2=O)C[C@@](O)(C(=O)CO)C[C@@H]3O[C@H]1C[C@H](N)[C@H](O)[C@H](C)O1` [Doxorubicin (Adriamycin)], the “mean cytoplasmic OPP incorporation” value was determined as 67.1.

On to `COc1cccc2c1C(=O)c1c(O)c3c(c(O)c1C2=O)C[C@@](O)(C(=O)CO)C[C@@H]3O[C@H]1C[C@H](N)[C@H](O)[C@H](C)O1` [Doxorubicin hydrochloride], for which the “mean cytoplasmic OPP incorporation” value was 54.8 ± 17.

`CCC(=O)O[C@@H](O[P@](=O)(CCCCc1ccccc1)CC(=O)N1C[C@H](C2CCCCC2)C[C@H]1C(=O)O)C(C)C` [Fosinopril sodium (Monopril)]: the “mean cytoplasmic OPP incorporation” value worked out at 102.

Turning to `CCC(=O)O[C@@H](O[P@](=O)(CCCCc1ccccc1)CC(=O)N1C[C@H](C2CCCCC2)C[C@H]1C(=O)O)C(C)C` [Fosinopril], the “mean cytoplasmic OPP incorporation” value was 96.7.

Regarding `CC(C)N1Cc2cc(S(C)(=O)=O)ccc2N(CCN2CC=C(c3c[nH]c4cc(F)ccc34)CC2)S1(=O)=O`, the “mean cytoplasmic OPP incorporation” value came to 106.

With `CC1(C)S[C@@H]2[C@H](NC(=O)[C@H](N)c3ccc(O)cc3)C(=O)N2[C@H]1C(=O)O` [Amoxicillin (Amoxycillin)], the “mean cytoplasmic OPP incorporation” value is 106.

As to `CC1(C)S[C@@H]2[C@H](NC(=O)[C@H](N)c3ccc(O)cc3)C(=O)N2[C@H]1C(=O)O` [Amoxicillin], the “mean cytoplasmic OPP incorporation” value turned out to be 96.9.

`CC1(C)S[C@@H]2[C@H](NC(=O)[C@H](N)c3ccc(O)cc3)C(=O)N2[C@H]1C(=O)O` [Amoxicillin sodium (Amox)]: the “mean cytoplasmic OPP incorporation” value amounted to 100.

On to `COc1cc(-c2cn(C)c(=O)c3cnccc23)c(OC)cc1CN(C)C`, for which the “mean cytoplasmic OPP incorporation” value was determined as 95.8.

On to `Cn1cnc2c(NCc3ccccc3)nc(NCCO)nc21` [Olomoucine], for which the “mean cytoplasmic OPP incorporation” value stood at 99.9.

As to `Cc1cc(C(=O)NOCCO)c(Nc2ccc(I)cc2F)n(C)c1=O`, the “mean cytoplasmic OPP incorporation” value was found to be 90.6.

On to `OCCOCCN1CCN(C2=Nc3ccccc3Sc3ccccc32)CC1` [Quetiapine hemifumarate], for which the “mean cytoplasmic OPP incorporation” value came out at 123.

Take `NCCNCCNCCNCCN` [Tetraethylenepentamine pentahydrochloride]: the “mean cytoplasmic OPP incorporation” value worked out at 109.

On to `Clc1cnccn1` [2-Chloropyrazine], for which the “mean cytoplasmic OPP incorporation” value stood at 113.

For `Nc1nc2c(ncn2[C@@H]2O[C@H](CO)[C@@H](O)[C@H]2O)c(=O)[nH]1` [Guanosine], the “mean cytoplasmic OPP incorporation” value was 106.

`Cc1cc2c(cc1S(N)(=O)=O)S(=O)(=O)CCC2` [Meticrane]: the “mean cytoplasmic OPP incorporation” value came out at 99.5.

Turning to `CCn1c2ccccc2c2cc(Nc3ccnc(NCCCN4CCOCC4)n3)ccc21`, the “mean cytoplasmic OPP incorporation” value was determined as 131.

As to `O=C1[C@H](Cc2ccc(O)cc2)N2C(=O)CCN(C(=O)NCc3ccccc3)[C@H]2CN1Cc1cccc2ccccc12`, the “mean cytoplasmic OPP incorporation” value worked out at 111.

Regarding `COC(=O)Nc1nc2cc(C(=O)c3ccccc3)ccc2[nH]1` [Mebendazole], the “mean cytoplasmic OPP incorporation” value was 76.

Consider `CC1(C)S[C@@H]2[C@H](NC(=O)[C@H](NC(=O)N3CCNC3=O)c3ccccc3)C(=O)N2[C@H]1C(=O)O` [Azlocillin sodium salt], for which the “mean cytoplasmic OPP incorporation” value was 100.3 ± 0.98.

`CCOC(=O)[C@H](CCc1ccccc1)N[C@@H](C)C(=O)N1Cc2ccccc2C[C@H]1C(=O)O` [Quinapril HCl]: the “mean cytoplasmic OPP incorporation” value was 103.

Consider `CC(CCc1ccccc1)NCC(O)c1ccc(O)c(C(N)=O)c1` (configuration not stated) [Labetalol hydrochloride], for which the “mean cytoplasmic OPP incorporation” value was determined as 102.

For the compound `O=C(O)c1cccnc1Nc1cccc(C(F)(F)F)c1` [Niflumic acid], the “mean cytoplasmic OPP incorporation” value is 93.2 ± 6.

On to `Cc1oncc1C(=O)Nc1ccc(C(F)(F)F)cc1` [Leflunomide], for which the “mean cytoplasmic OPP incorporation” value is 101 ± 3.8.

For `O=c1[nH]c2cc(C(F)(F)F)c(N3CCOCC3)cc2n(CP(=O)(O)O)c1=O`, the “mean cytoplasmic OPP incorporation” value was 101.

Take `COc1ccc(C(Cl)=C(c2ccc(OC)cc2)c2ccc(OC)cc2)cc1` [Chlorotrianisene]: the “mean cytoplasmic OPP incorporation” value came to 91.4.

Regarding `CN(C)/N=N/c1[nH]cnc1C(N)=O` [Dacarbazine], the “mean cytoplasmic OPP incorporation” value stood at 87.

Consider `CC[N+](C)(C)Cc1ccccc1Br` [Bretylium tosylate], for which the “mean cytoplasmic OPP incorporation” value stood at 104.

As to `CCCCCCCCc1ccc(-c2ccc(C(=O)O)cc2)cc1`, the “mean cytoplasmic OPP incorporation” value amounted to 105.

For the compound `C[N+](C)(C)CCCCCC[N+](C)(C)C` [Hexamethonium dibromide dihydrate], the “mean cytoplasmic OPP incorporation” value came to 87.5.

Take `CC1C(=O)OC2C(O)C34C5CC(C(C)(C)C)C36C(OC(=O)C6O)OC4(C(=O)O5)C12O` (configuration not stated) [Ginkgolide B]: the “mean cytoplasmic OPP incorporation” value stood at 94.3.

With `O=c1[nH]ccc2c(S(=O)(=O)N3CCCNCC3)cccc12` [HA 1100 hydrochloride], the “mean cytoplasmic OPP incorporation” value was 99.3.

For the compound `CN1C(C)(C)CCCC1(C)C` [Pempidine tartrate], the “mean cytoplasmic OPP incorporation” value came out at 109.
